{
  "source": "PubChem BioAssay AID463173",
  "about": "(ICCB-Longwood Screening Facility, Harvard Medical School, 2010)",
  "note": "Out of some 52,000 compounds screened, about 4,300 (8.3%) were called active. Cut-off read from the data, not from the text of the source: active = survival mostly below about 52% (no sharp cut-off); inactive = mostly above about 56%. The list shows a part of the results.",
  "data": [
    {"test_system": "DeltatarO mutant", "experiment": "growth inhibition of S. aureus wild type versus tarO mutant, primary screen, teichoic acid synthesis inhibitors, RN4220, OD600 (AID 463173)", "conditions": "OD600, 18 h, stronger effect = lower value, screened at 18.75 µg/mL (by protocol)", "values": [
      {"smiles": "O=C(CCNS(=O)(=O)c1cccc2nonc12)Nc1ccc(F)cc1", "survival": "active: 45%"},
      {"smiles": "COC(=O)CSCc1nc(-c2ccc(C(=O)OC)cc2)oc1C", "survival": "inactive: 78%"},
      {"smiles": "NC(=O)CSc1nc2ccccc2c(=O)n1Cc1ccco1", "survival": "inactive: 72%"},
      {"smiles": "COC(=O)c1cccc(Nc2c(-c3ccc(O)cc3)nc3nc[nH]n23)c1", "survival": "inactive: 144%"},
      {"smiles": "COc1ccc(N2CCN(C(=O)c3cn(C4CCCCC4)c(=O)c4c3c3ccccc3n4C)CC2)cc1", "survival": "inactive: 87%"},
      {"smiles": "CCC(C)NC(=O)C1CCCN(S(=O)(=O)c2ccc(C)c(Cl)c2)C1", "note": "(stereo not given)", "survival": "inactive: 94%"},
      {"smiles": "Cc1cc(C)c(S(=O)(=O)Nc2ccc(-c3ccc(N4CCCCC4)nn3)cc2)c(C)c1", "survival": "inactive: 77%"},
      {"smiles": "CCOc1ccccc1NC(=O)c1c(NC(=O)Cc2ccccc2)sc2c1CCCC2", "survival": "inactive: 81%"},
      {"smiles": "COc1ccc(C)cc1NC(=O)CN1CCCN(S(=O)(=O)c2ccc(Br)cc2)CC1", "survival": "inactive: 108%"},
      {"smiles": "CCNc1ccc2noc3c2c1C(=O)c1ccccc1-3", "survival": "inactive: 74%"},
      {"smiles": "CCOc1ccc(-c2c(C)nn3c(C)c(C(=O)NCC(C)c4ccccc4)cnc23)cc1OCC", "note": "(stereo not given)", "survival": "inactive: 81%"},
      {"smiles": "CCCCNS(=O)(=O)c1ccc(S(=O)(=O)n2cnc3ccccc32)cc1", "survival": "inactive: 107%"},
      {"smiles": "Cc1c(CNC(C)c2ccccc2)c(C(=O)O)c(C)n1Cc1c(F)cccc1Cl", "note": "(stereo not given)", "survival": "inactive: 78%"},
      {"smiles": "CCOC(=O)C1CCCN(C(=O)c2cc3c(=O)n(C)c4ccccc4c3s2)C1", "note": "(stereo not given)", "survival": "active: 44%"},
      {"smiles": "CC(C)(C)c1nc(NCc2cccs2)c2nnn(Cc3ccccc3Cl)c2n1", "survival": "inactive: 84%"},
      {"smiles": "O=C(Nc1ccccc1C(F)(F)F)c1noc2c1CCCCC2", "survival": "inactive: 66%"},
      {"smiles": "CCCc1nn(C)c2c(=O)[nH]c(-c3cc(S(=O)(=O)N4CCN(C)CC4)ccc3OCC)nc12", "survival": "inactive: 69%"},
      {"smiles": "CCc1cccc(C)c1Nc1c(-c2ccc(N3CCOCC3)cc2)nc2ncccn12", "survival": "inactive: 75%"},
      {"smiles": "CC(=O)c1ccc(NC(=O)C2CCCN(S(=O)(=O)c3cn(C)cn3)C2)cc1", "note": "(stereo not given)", "survival": "inactive: 94%"},
      {"smiles": "COc1cc(-c2noc(-c3nnn(-c4ccc(Cl)cc4)c3C)n2)cc(OC)c1OC", "survival": "inactive: 81%"},
      {"smiles": "CCc1ccc(N2C(=O)CS(=O)(=O)C23C(=O)N(Cc2ccccc2)c2ccccc23)cc1", "note": "(stereo not given)", "survival": "inactive: 66%"},
      {"smiles": "Cc1ccc(-n2nc(CO)c(C(=O)NCCc3ccccc3)n2)cc1C", "survival": "inactive: 111%"},
      {"smiles": "CN(C)CCCNc1c2c(nc3cc(-c4cccc(F)c4)nn13)CCC2", "survival": "inactive: 103%"},
      {"smiles": "COc1ccc(Cn2c(C(=O)O)c(CNCCc3ccccc3Cl)c3ccc(C)cc32)cc1", "survival": "inactive: 80%"},
      {"smiles": "Cc1ccc(-n2nc3c(=O)n(C(C)C(=O)O)nc(C)c3c2C)cc1", "note": "(stereo not given)", "survival": "inactive: 101%"}
    ]}
  ]
}
